Here are results for 42 compounds from ChEMBL document CHEMBL4888484, “Replenishing the malaria drug discovery pipeline: Screening and hit evaluation of the MMV Hit Generation Library 1 (HGL1) against asexual blood stage Plasmodium falciparum ,using a nano luciferase reporter read-out” (2022).

The campaign covered roughly 150,000 compounds. About 540 (0.36%) showed an effect of 50% or more. The list shows a part of the results.

This assay concerns Plasmodium falciparum. As to the kind of experiment: Primary screen in NF54 nanoGlo assay, in single point, at 2uM, 72h; a lower Z score goes with more inhibition. It counts as functional, Erythrocyte. To be noted: timepoint 72 hour.
Take `CCN1CCN([C@H]2CCN(Cc3nc(-c4ccc(OC(F)F)c(OC)c4)no3)C2)CC1`: the “% Inhibition” value is reported as -14% and the Z score came to 1.37.
For `Cc1nccc(O[C@H]2CCCN(S(=O)(=O)C3CC3)C2)n1`, the “% Inhibition” value is recorded as -3% and the Z score was 0.61.
In the case of `COc1ccc([C@H](CNC(=O)C2CCCC2)N2CCCCC2)cc1`, the “% Inhibition” value is listed as 5% and the Z score is recorded as -0.65.
In the case of `CCCc1nc(N2CCC[C@H](CNC(=O)c3cnn(C)c3C)C2)no1`, the “% Inhibition” value is listed as 6% and the Z score is on record as -0.78.
On the same counts, the results for `CS(=O)(=O)N1CC[C@@H](C(=O)Nc2ccc(F)cc2F)Oc2ccc(Cl)cc21` are 9% and -1.08.
Consider `CC(NC(=O)C(c1ccccc1)c1ccccc1)C1CC2CCC1C2` (centres undefined), for which the “% Inhibition” value was found to be 6% and the Z score was -0.76.
With `c1cc(-c2nc3c(c(NC4CC4)n2)CCN(c2cnccn2)CC3)ccn1`, the “% Inhibition” value is -3% and the Z score is given as 0.46.
As to `COC1(C(=O)N2CCO[C@H]3CCC[C@H]32)CCC1`, the “% Inhibition” value is -3% and the Z score was determined as 0.34.
Taken in the same sequence, the figures for `CC(CN(C)C(=O)NCCC1CCCO1)c1nccs1` (centres undefined) were -5% and 0.69.
Taken in the same sequence, the figures for `CCOc1ncc(C(=O)N2C[C@@H]3CS(=O)(=O)C[C@@H]3C2)cc1Cl` were -9% and 1.49.
On the same counts, the results for `O=C(NCCc1ccc(F)cc1)C1CCCCC1C(=O)N1CCCC1` (centres undefined) are -12% and 1.89.
`Cn1cnnc1NCc1cnc(C(C)(C)C)s1`: the “% Inhibition” value was found to be 8% and the Z score is recorded as -0.92.
Taken in the same sequence, the figures for `CCN(C(=O)Cn1cnc2c1c(=O)n(C)c(=O)n2C)c1ccccc1C` were -16% and 2.98.
Taken in the same sequence, the figures for `COc1cc(N(C)CCc2ccncc2)ncn1` were -2% and 0.23.
On the same counts, the results for `O=C(NCc1ccc([C@@H](O)c2ccsc2)s1)NC1CCOCC1` are -5% and 0.63.
Turning to `CC(C)(C)n1nnc(CC(=O)N(Cc2cccnc2)c2ccc(F)cc2)n1`, the “% Inhibition” value is recorded as -1% and the Z score is listed as 0.19.
On the same counts, the results for `CC(C)Oc1cc(N2CCN(Cc3cc(C(C)C)no3)CC2)nc(N)n1` are -10% and 1.92.
On the same counts, the results for `CN(C)CCn1ccnc1C1CCN(C(=O)c2nc3ccccc3[nH]2)CC1` are -12% and 1.47.
Taken in the same sequence, the figures for `CCCN(Cc1ccc(Cl)cc1)C(=O)NCCCC(=O)O` were -2% and 0.28.
As for `Cc1ccc(C(N)=O)cc1OC(=O)c1cc(C)n(-c2ccc(F)cc2F)n1`, the “% Inhibition” value is -5% and the Z score is 0.77.
On the same counts, the results for `CC(C)C[C@@H](CN(C)C)NC(=O)c1[nH]ncc1Br` are 0% and 0.04.
Regarding `O=C(Nc1ccc(C(=O)N2CCCCC2)cc1)Nc1ccc2c(c1)OCO2`, the “% Inhibition” value is -17% and the Z score is given as 3.38.
On the same counts, the results for `Cc1ccc2c(c1)Oc1ccccc1C(N1CCN(C(=O)COc3ccccc3)[C@@H](C)C1)=N2` are -19% and 3.11.
On the same counts, the results for `Cc1cc(C(=O)N[C@H]2CCCc3ccccc32)c(C)o1` are -7% and 1.01.
On to `Cc1cc(O)nc(C(=O)N(C)C[C@H]2CCCO2)c1`, for which the “% Inhibition” value was 6% and the Z score was -1.21.
Turning to `C[C@@H](c1ccccc1)n1nccc1NC(=O)CCN1CCCCC1=O`, the “% Inhibition” value is listed as -11% and the Z score worked out at 2.16.
Regarding `CCOc1ccc(CN2CCc3nc(N4CCOCC4)ncc3C2)cc1OC`, the “% Inhibition” value amounted to 1% and the Z score is on record as -0.14.
`CC(=O)N1CCC[C@H](c2ncc(Cc3ccccc3Cl)s2)C1`: the “% Inhibition” value was -8% and the Z score turned out to be 1.21.
On the same counts, the results for `O=C(Nc1ccccc1)[C@H]1CCc2nc(N3CCCC3)ncc2C1` are -14% and 2.67.
Taken in the same sequence, the figures for `Cc1cc(F)ccc1N1CCC[C@H](NC(=O)c2ccc[nH]2)C1=O` were -6% and 1.2.
On the same counts, the results for `COc1cc(NC(=O)c2sc(Nc3cc(C)ccn3)nc2C)cc(OC)c1OC` are -6% and 0.93.
`COc1ccc(CNC(=O)CCc2nnc3c4cc(-c5cc(C)ccc5C)nn4ccn23)cc1`: the “% Inhibition” value amounted to 0% and the Z score was determined as 0.01.
On the same counts, the results for `CC1CCN(C(=O)NCc2ccc(-n3cncn3)nc2)CC1` are -3% and 0.54.
In the case of `CC(NS(C)(=O)=O)C(=O)NC1CCN(c2ccc(F)c(Cl)c2)C1` (centres undefined), the “% Inhibition” value is recorded as -6% and the Z score is 0.73.
On the same counts, the results for `O=C(Nc1nnn[nH]1)C1CC1c1ccccc1OC(F)(F)F` (centres undefined) are -9% and 1.32.
On the same counts, the results for `C[C@@]1(C(=O)N2CC(S(C)(=O)=O)C2)CC=CCC1` are -10% and 1.79.
With `CCc1cc(Nc2ccc3ccccc3c2)n2nc(-c3cccnc3)nc2n1`, the “% Inhibition” value is given as 19% and the Z score was -3.07.
Taken in the same sequence, the figures for `O=S1(=O)CCC[C@H](CS(=O)(=O)N2CCc3cc(Cl)ccc32)C1` were 12% and -1.46.
Taken in the same sequence, the figures for `O=C1CCCN1C[C@H]1CCCN(c2ncnc3c2Cc2ccccc2OC3)C1` were -14% and 2.61.
On to `CC[C@H](C)N(CC(=O)OC(C)(C)C)Cc1cc(C)on1`, for which the “% Inhibition” value is reported as -11% and the Z score is 1.
As for `CCc1ncsc1NS(=O)(=O)c1ccc(OCC(F)F)cc1`, the “% Inhibition” value was -18% and the Z score stood at 2.02.
Taken in the same sequence, the figures for `Cc1nn(C)c2nc(-c3ccncc3)nc(N(C)Cc3cc(C4CC4)[nH]n3)c12` were 1% and -0.25.

The term % Inhibition denotes the change of the read-out against control, counted positive when it falls.
